# Measured values reported in the supplement of paper PMC4166925.
# ± gives the standard deviation of the averaged measurements. In all, about 33,000 sequences were measured (“E-score (dimensionless, -0.5 to 0.5)”: median about -0.046, highest 2% from about 0.36 on). The list shows a part of the results.
# Tested on: T1, SpTbr T-box DNA-binding domain (GST fusion)
# T1 sequence: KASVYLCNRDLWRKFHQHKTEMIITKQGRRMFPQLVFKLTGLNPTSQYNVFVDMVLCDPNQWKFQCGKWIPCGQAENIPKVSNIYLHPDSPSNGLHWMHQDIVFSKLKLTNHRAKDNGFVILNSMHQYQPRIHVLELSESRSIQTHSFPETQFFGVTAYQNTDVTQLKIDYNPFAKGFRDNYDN
# Test: PBM E-score of 8-mer (E-score (dimensionless, -0.5 to 0.5)); Tbr is Tbrain of the sea star Patiria miniata (Pm) or the sea urchin Strongylocentrotus purpuratus (Sp); higher = stronger binding preference; most listed sequences are background and not binding sites
# Settings: the construct has about 5 more residues each side
# Summary of the method: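 Primer extension turned Universal Agilent oligonucleotide arrays double-stranded. They were incubated with 200 nM protein in PBS (pH 7.5); the protein was a GST-fused Tbr T-box DNA-binding domain expressed in BL21 E. coli at 20 °C and purified on glutathione. Every ungapped 8-mer was scored from the scanned, quantified probe intensities, and the Universal PBM Analysis Suite gave each an enrichment E-score averaged over duplicate arrays.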
row,Sequence,PBM E-score of 8-mer
1,TACCACAA,-0.0401 ± 0.041
2,AGCAGGCA,-0.0298 ± 0.022
3,AGTCGATC,0.0092 ± 0.035
4,TCCTAACA,0.141 ± 0.059
5,CGGCGGGC,-0.184 ± 0.12
6,GGTAGTTA,-0.00108 ± 0.033
7,ACGCTGGG,-0.00371 ± 0.016
8,GTGATTCA,0.0849 ± 0.0068
9,CGTACGAC,-0.0171 ± 0.029
10,CAGATCAC,0.135 ± 0.033
11,GGAGTCGA,0.00106 ± 0.037
12,CGTAATTA,-0.116 ± 0.069
13,CGATGGAG,-0.131 ± 0.032
14,AGGCAAGG,-0.16 ± 0.052
15,CGGCAGGC,-0.0737 ± 0.01
16,ACATATAC,-0.0534 ± 0.032
17,ACTGGGAT,0.0148 ± 0.046
18,ATGGACGG,-0.175 ± 0.066
19,CAGTCCGC,0.0486 ± 0.021
20,CACCGTGG,0.2183 ± 0.0016
21,AGCTAAAG,-0.278 ± 0.036
22,GGCTGCGA,0.185 ± 0.027
23,CATCAAAG,0.0341 ± 0.022
24,AAACCTTA,-0.0223 ± 0.025
25,AAACTATA,0.0762 ± 0.033

row,Sequence,PBM E-score of 8-mer
1,ACTACGTG,0.0836 ± 0.056
2,ATGCGAGA,0.172 ± 0.017
3,ACGACGCC,0.121 ± 0.079
4,CCGCTGCC,-0.0817 ± 0.0059
5,CAAATACC,-0.0853 ± 0.024
6,ATCGTGAG,0.208 ± 0.0056
7,CGCGTCAA,0.313 ± 0.006
8,ATACTAAA,-0.122 ± 0.0058
9,AGCCAAAC,0.0092 ± 0.017
10,CGAATCTC,0.0908 ± 0.025
11,CTGCGTCC,-0.247 ± 0.021
12,CAATCGGG,-0.184 ± 0.035
13,GGCTTTAA,-0.149 ± 0.043
14,GAGATCTC,0.0968 ± 0.0089
15,ATCCTGTA,-0.104 ± 0.036
16,AGCAAATG,-0.212 ± 0.0035
17,TAGAGACA,-0.121 ± 0.0034
18,GGCATTAC,-0.177 ± 0.019
19,AGATGAGC,-0.3 ± 0.013
20,TATGTAGA,-0.0966 ± 0.018
21,CCGAGCTA,-0.0175 ± 0.052
22,CACGAGGA,-0.0363 ± 0.019
23,CATGCAAG,-0.0547 ± 0.029
24,ATGGTGGC,0.274 ± 0.028
25,GGAACGGA,0.0688 ± 0.073

row,Sequence,PBM E-score of 8-mer
1,AAAAGTGA,0.169 ± 0.069
2,GAGTCATA,-0.107 ± 0.043
3,ATATTTAC,-0.134 ± 0.11
4,GCACGCAA,0.0125 ± 0.0044
5,CGCCTAGC,0.229 ± 0.014
6,CGCCTACA,0.162 ± 0.066
7,AGTAACAA,0.169 ± 0.066
8,CTACAGAG,-0.1919 ± 0.0009
9,GGAATATA,-0.18 ± 0.0099
10,GAAAGCCA,-0.173 ± 0.024
11,CTGTCACA,0.358 ± 0.01
12,AAAAATTA,0.00658 ± 0.092
13,ATGCGTGC,0.151 ± 0.014
14,GAATGTCC,-0.229 ± 0.039
15,AAGGATCA,-0.0804 ± 0.057
16,ATGAAGAC,-0.104 ± 0.068
17,AACTTTAA,-0.144 ± 0.031
18,TAGCTGGA,-0.0828 ± 0.039
19,CGTACGCC,-0.175 ± 0.019
20,GGGAGCTA,-0.0989 ± 0.0066
21,ATAAGGCA,-0.0753 ± 0.039
22,CTCGTGGA,-0.0626 ± 0.077
23,GAGCGTGA,0.31 ± 0.026
24,ATGAGTTG,-0.0117 ± 0.028
25,ATGTAGAA,-0.265 ± 0.042

row,Sequence,PBM E-score of 8-mer
1,AAATCGCC,0.165 ± 0.0026
2,CAATCAAG,-0.211 ± 0.016
3,CACAGTTA,0.147 ± 0.022
4,CGAAAAGA,-0.121 ± 0.043
5,TGCAAACA,0.172 ± 0.021
6,ACTAGGCG,0.0902 ± 0.068
7,CGAATCGA,0.0765 ± 0.0087
8,ATCCCGCG,0.065 ± 0.026
9,CGTTGCTC,-0.0648 ± 0.01
10,GTTGTAGA,-0.04927 ± 0.0004
11,ACGATACC,-0.0239 ± 0.049
12,CGTGTCTC,-0.0159 ± 0.01
13,AAGCAGAT,-0.124 ± 0.027
14,TGCGATAA,0.275 ± 0.013
15,CGTACACA,0.1032 ± 0.00023
16,ATGTCACC,0.323 ± 0.0098
17,CGGTAAAA,-0.0986 ± 0.035
18,GACCTGCC,0.0636 ± 0.012
19,CACTAACG,0.2548 ± 0.0015
20,CCTTCCTC,-0.0565 ± 0.11
21,GCGTGACC,0.369 ± 0.004
22,GAATATTC,0.064 ± 0.1
23,AAGCCCAA,-0.261 ± 0.094
24,CACAGAGA,0.0167 ± 0.011
25,CAATCTAG,0.0144 ± 0.083

row,Sequence,PBM E-score of 8-mer
1,CAACCGGA,-0.158 ± 0.018
2,AACGTGGC,0.27 ± 0.034
3,ACTCGGGA,-0.132 ± 0.044
4,CGATCCGC,0.00935 ± 0.013
5,AGTATTAC,-0.239 ± 0.0039
6,CCCTCAGG,-0.109 ± 0.025
7,ACTGAAAT,0.174 ± 0.038
8,ATGATGTC,-0.143 ± 0.0033
9,AGTTACTG,-0.0684 ± 0.048
10,AGAAATGG,-0.0657 ± 0.013
11,CCTGGCTA,0.00724 ± 0.0031
12,CACAAGGC,-0.114 ± 0.035
13,CAGGAGTC,-0.08397 ± 0.00014
14,TGAGCTCA,-0.137 ± 0.047
15,CACATGTG,0.315 ± 0.014
16,CATCAACA,0.146 ± 0.015
17,AGACTGGA,-0.158 ± 0.012
18,AATGTCCG,-0.174 ± 0.012
19,AAGCGAAC,-0.061 ± 0.041
20,CGCGCTCA,0.108 ± 0.01
21,ATACGACC,-0.0697 ± 0.018
22,CTGGGCTA,-0.126 ± 0.019
23,CTATTTCA,-0.0496 ± 0.03
24,CGCCAGGA,0.0592 ± 0.04
25,AGCGACGG,0.00089 ± 0.011

row,Sequence,PBM E-score of 8-mer
1,ACGAGCAG,0.0252 ± 0.069
2,AAATCATA,-0.142 ± 0.086
3,ACCGTCGT,0.234 ± 0.037
4,CATCTTCC,0.00074 ± 0.00079
5,ACATTGGC,0.166 ± 0.028
6,CACCGGAC,-0.191 ± 0.0046
7,CGGGCGAA,-0.0971 ± 0.033
8,GGGCGAAC,-0.0364 ± 0.016
9,GTCGGTTA,-0.0491 ± 0.011
10,CGGAGAGA,-0.108 ± 0.025
11,CAGGATGG,-0.207 ± 0.052
12,AGGCGAAA,0.0477 ± 0.032
13,TAGCGATA,-0.0255 ± 0.0094
14,AACCATGA,-0.102 ± 0.092
15,CAGGTTAC,0.0843 ± 0.017
16,AATGCATT,-0.119 ± 0.051
17,ATCCAACG,-0.00189 ± 0.0081
18,GACGGGAC,0.00236 ± 0.021
19,GAATCCAA,-0.176 ± 0.015
20,AAGGAAAC,0.0136 ± 0.033
21,ACCCAGTG,-0.0456 ± 0.03
22,ACACACTA,0.165 ± 0.042
23,AGTGGACC,-0.244 ± 0.074
24,AATGGGGC,-0.0417 ± 0.019
25,ATGTCCGA,-0.245 ± 0.031

row,Sequence,PBM E-score of 8-mer
1,CGATTTAA,-0.0373 ± 0.037
2,CATTAAAC,-0.109 ± 0.035
3,CAGGGATG,-0.0786 ± 0.0098
4,CTGTAACC,-0.0553 ± 0.019
5,GCTCTCCC,-0.276 ± 0.024
6,AAAATATT,-0.0954 ± 0.078
7,ATTATGCA,-0.239 ± 0.021
8,AAAGCATG,-0.0264 ± 0.029
9,CCGGGAAA,0.156 ± 0.0031
10,GGGAGGGA,-0.121 ± 0.015
11,CATAAATC,-0.0478 ± 0.039
12,GATTTGGA,-0.094 ± 0.069
13,GAGTAACA,0.211 ± 0.034
14,AAGGGTCA,0.0705 ± 0.055
15,ATCTTCTA,-0.13 ± 0.054
16,ACGGAAGC,-0.134 ± 0.026
17,CACCCTGC,0.214 ± 0.0075
18,GCATTCCC,-0.0683 ± 0.1
19,TACCTCAA,-0.13 ± 0.045
20,CGCCAGCG,0.165 ± 0.095
21,TTGTGAAA,0.361 ± 0.04
22,ACATGATC,-0.0613 ± 0.067
